Several values for one entry are separate records, joined by “and”; a condition that tells them apart may be missing. Identical values can stand only once. Hit rate of the full screen: of about 420,000 compounds, about 50,000 (12%) were called active. The inconclusive results got no clear call from the source; some entries with a clear call stand among them for comparison. The call rests on the fitted dose curve; in most records, active means well fitted inhibition curve with a large enough effect; inconclusive means small, poorly fitted or top-dose-only effect; inactive means flat fitted curve, though single readings scatter. Potencies of inconclusive entries are doubtful fits and often do not repeat.
Assay: qHTS for Inhibitors of human tyrosyl-DNA phosphodiesterase 1 (TDP1): qHTS in cells in presence of CPT; further: nearly all actives have a fitted effect of over 55% in size
Settings: chicken DT40 Tdp1-/-;hTDP1 cells + 20 nM CPT, ATP luminescence, 48 h; activity change, negative = growth inhibition: at 46.2 µM (top of the series)
Procedure, shortened: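 Cell growth measured by CellTiter-Glo luminescence after a minimum 48 h, 37 C compound exposure with 20 nM CPT in Tdp1-knockout DT40 cells stably expressing hTDP1, seeded 400/well; qHTS titration format.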
On the % scale 0 is the no-effect control and ±100 the full control effect; potency means the concentration at half of the fitted maximal effect; tags describe the fitted curve by direction and shape.

| Structure (SMILES) | Potency | activity change, negative = growth inhibition |
| --- | --- | --- |
| COc1cccc(CN2CCN(Cc3cc(OC)c(OC)c(OC)c3)CC2)c1OC | inconclusive: 3.66 µM [inhibitor, single point] |  |
| CC(C)C[C@H](NC(=O)N1CCn2c1nc1ccccc12)C(=O)NCc1ccc2c(c1)OCO2 | inconclusive: 16.4 µM [inhibitor, single point] |  |
| Nc1sccc1C(=O)N1CCN(c2ccccc2)CC1 | active: 18.4 µM |  |
| CN1CCN(c2cc3c(c4c2[nH]c2ccccc24)C(=O)CC(C)(C)C3)CC1 | inconclusive: 29.1 µM [inhibitor, single point] |  |
| CCCNC(=O)N1CCN(S(C)(=O)=O)CC1 |  | inactive: 10.9% |
| CCOc1ccc(NC(=O)c2sc(N3CCOCC3)nc2-c2ccccc2)cc1 | inconclusive: 29.1 µM [inhibitor, single point] |  |
| O=C(CSc1nnc(NC(=O)c2cccc(Br)c2)s1)NCC1CCCO1 (configuration not stated) |  | inactive: 1.63% |
| COc1ccc(C(=O)NC(=S)N2CCCCC2c2cccnc2)cc1OC (configuration not stated) |  | inactive: -18.3% |
| CCOC(=O)c1ccc(NC(=O)CC(C)n2nc(C)cc2C)cc1 (configuration not stated) | inconclusive: 16.4 µM [inhibitor, single point] |  |
| COC(=O)c1cc(NC(=O)COC(=O)C2COc3ccccc3O2)cc(C(=O)OC)c1 (configuration not stated) |  | inactive: -0.591% |
| CCN(CC)CCNC(=O)c1cc2c(=O)n(C)c3ccccc3c2s1 | active: 18.4 µM |  |
| CCOC(=O)C(C)n1nc(/C=C/c2ccccc2)ccc1=O (configuration not stated) | inconclusive: 18.4 µM [inhibitor, single point] |  |
| CC(C)N1CCN(Cc2ccc(-c3ccccc3Cl)o2)CC1CCO (configuration not stated) | inconclusive: 29.1 µM [inhibitor, single point] |  |
| Cc1ccc(C)c(Nc2nn3c(=O)c4ccc(C(=O)NCc5ccccc5)cc4nc3s2)c1 | active: 5.17 µM |  |
| O=C(NNS(=O)(=O)c1ccc(F)cc1F)C1Cc2c(ccc3ccccc23)O1 (configuration not stated) | active: 18.4 µM |  |
| O=c1[nH]c(C2CCCN(S(=O)(=O)c3ccccc3)C2)nc2c1nnn2Cc1ccccc1Br (configuration not stated) | inconclusive: 29.1 µM [inhibitor, single point] and inconclusive: 18.4 µM [inhibitor, single point] |  |
| COc1ccc(-c2ccc(=O)n(CC(=O)Nc3cc(OC)ccc3OC)n2)cc1 |  | inactive: -4.44% |
| CCCCNC(=S)NNC(=O)c1ccoc1C |  | inactive: -6.9% |
| CC(=O)C[C@H]1c2cc(C(F)(F)F)ccc2S(=O)(=O)N1C1CCCC1 | inconclusive: 29.1 µM [inhibitor, single point] |  |
| COc1ccccc1CNC(=O)COC(=O)c1cccs1 |  | inactive: -22.4% |
| Cc1cccc(-n2ncc3c(NNC(=O)c4ccccc4Cl)ncnc32)c1 | inconclusive: 32.6 µM [inhibitor, single point] |  |
| COC(=O)c1cc(Nc2cc(C)c3c(O)cccc3n2)cc(C(=O)OC)c1 | active: 20.6 µM |  |
| C=CCNC(=O)c1ccc2c3n(nc2c1)-c1ccc(Cl)cc1CO3 | inconclusive: 25.9 µM [inhibitor, single point] |  |
| CC(C)(C)C(=O)Nc1cccc(S(=O)(=O)NC2=NCCC2)c1 |  | inactive: -25.3% |

| Structure (SMILES) | Potency | activity change, negative = growth inhibition |
| --- | --- | --- |
| Cc1cccc(NC(=S)N2CCC(c3nc4ccccc4o3)CC2)c1 |  | inconclusive: -32.1% [inhibitor] |
| CCCCN(CC)CCCNC(=O)c1cn(C)c(=O)c2c1c1ccccc1n2C | inactive |  |
| O=C1CC(c2ccc(Cl)c([N+](=O)[O-])c2)c2ccc3ccccc3c2N1 (configuration not stated) | inconclusive: 18.4 µM [inhibitor, single point] |  |
| Cc1cccc(N2C(=O)c3cccnc3C2=O)c1 |  | inactive: 4.51% |
| COc1cccc(C(=O)Nc2nnc(S(=O)(=O)N3CCCc4ccccc43)s2)c1 | inconclusive: 18.4 µM [inhibitor, single point] |  |
| Cc1nn(CCC(=O)Nc2cccc(C#N)c2)c(C)c1S(=O)(=O)N1CCCCC1 | inconclusive: 461 nM [inhibitor, full curve, poor fit] and inconclusive: 20.6 µM [inhibitor, single point] |  |
| CC(C)[C@H](NC(=O)C1CC(=O)N(c2ccc3c(c2)OCCO3)C1)C(=O)NC1CCCC1 (some centres not stated) |  | inactive: -10.5% |
| COc1ccc(N2CCN(C(=O)COc3ccc(Cl)cc3Cl)CC2)cc1 | inconclusive: 14.6 µM [inhibitor, partial curve] |  |
| O=c1[nH]cnc2c1ncn2[C@H]1C[C@H](O)[C@@H](CO)O1 | active: 12.6 µM |  |
| Cc1noc(C)c1S(=O)(=O)N1CCCC(C(=O)NCc2ccccc2Cl)C1 (configuration not stated) |  | inactive: -12.6% |
| Cc1ccc(C)c(CN2C(=O)c3ccccc3S(=O)c3ccc(C(=O)N4CCCCC4)cc32)c1 (configuration not stated) | active: 16.4 µM |  |
| CC(C)Cc1ccc(CN2CCCC(NC(=O)CCN3CCCCC3=O)C2)cc1 (configuration not stated) | inconclusive: 23.1 µM [inhibitor, single point] |  |
| CCc1cnc2c(c1SCc1cc(OC)cc(OC)c1)c(=O)n(C)c(=O)n2C | inconclusive: 6.51 µM [inhibitor, full curve, poor fit] |  |
| COc1ccc(OC)c(S(=O)(=O)NCCS(=O)(=O)N2CCN(c3ccccc3F)CC2)c1 | inconclusive: 18.4 µM [inhibitor, single point] |  |
| CCS(=O)(=O)NCCc1csc2nc(-c3ccc(OC)cc3)nn12 | inconclusive: 20.6 µM [inhibitor, single point] |  |
| COc1ccc(C(=O)CSc2nc(=O)n3ccc(C)cc3n2)cc1 |  | inactive: -29.1% |
| Cc1cc(Nc2cccc(Cl)c2)nc(N2CCOCC2)n1 | active: 14.6 µM |  |
| Cc1cc(C)n(CCC(=O)N/N=C/c2ccc(Cl)c([N+](=O)[O-])c2)n1 |  | inactive: 8.16% |
| Cc1noc(C)c1C(=O)Nc1nc(C23CC4CC(CC(C4)C2)C3)cs1 | inconclusive: 18.4 µM [inhibitor, single point] |  |
| CSc1nc(NC2CCCC2)c([N+](=O)[O-])c(NC2CCCC2)n1 |  | inactive: 2.8% |
| COc1cccc(OCC(O)CN2C(C)CCCC2C)c1 (configuration not stated) | inconclusive: 29.1 µM [inhibitor, single point] |  |
| O=C1N[C@@H](Cc2c[nH]c3ccccc23)COC(=O)[C@H](Cc2ccc(F)cc2)C/C=C\C[C@H]1CC(=O)N(CCO)Cc1ccccc1 | active: 13 µM |  |
| Cc1cc(C([O-])=C(C(=S)Nc2ccc(F)cc2)[n+]2ccccc2)c(C)n1-c1ccc(F)cc1 | active: 25.9 µM |  |
| Cc1ccc(OCCn2c(C3CC(=O)N(Cc4ccc(F)cc4)C3)nc3ccccc32)c(C)c1 (configuration not stated) | active: 25.9 µM |  |

| Structure (SMILES) | Potency | activity change, negative = growth inhibition |
| --- | --- | --- |
| CC(Oc1ccc(Cl)cc1Cl)C(=O)NC(Cc1ccccc1)C(=O)O (configuration not stated) |  | inactive: 23.2% |
| COc1ccccc1/C=C/C(=O)Nc1nc2n(n1)C(c1ccc(F)cc1)C=C(c1ccccc1)N2 (configuration not stated) | active: 10.3 µM |  |
| CCOC(=O)C1=C(C)NC2=C(C(=O)C(C(=O)OCC)C(c3cccc(OC)c3)C2)C1c1ccccn1 (configuration not stated) | inconclusive: 14.6 µM [inhibitor, single point] |  |
| Cc1ccc2c(CN3CCCCC3C)cc(=O)oc2c1C (configuration not stated) | inconclusive: 16.4 µM [inhibitor, partial curve, poor fit] |  |
| COc1c[nH]n(C2CCCCC2)c(=O)c1=O | inconclusive: 23.1 µM [inhibitor, partial curve] |  |
| CSc1ncc(C(=O)NCc2cccc(C)c2)c(-c2ccccc2)n1 | inconclusive: 16.4 µM [inhibitor, single point] |  |
| O=C(CCCC(=O)N(c1ccc2c(c1)OCCO2)C(C(=O)NC1CCCCC1)c1ccc(Cl)cc1)Nc1ccccn1 (configuration not stated) | inconclusive: 16.4 µM [inhibitor, single point] |  |
| CCNc1c(NS(=O)(=O)c2ccc(Cl)s2)c(=O)oc2ccccc12 |  | inactive: 3.27% |
| COc1ccc(-c2ccc(C(=O)Nc3cccc(NS(C)(=O)=O)c3)c3occc23)c(C)c1 | active: 16.4 µM |  |
| COc1ccc(C2CC(C(F)(F)F)n3ncc(C(=O)Nc4cccc(O)c4)c3N2)cc1OC (configuration not stated) |  | inactive: -14.6% |
| O=C(CNCCc1ccc(F)cc1)Nc1cc(F)ccc1F |  | inactive: 1.36% |
| O=S(=O)(NCC(c1ccccc1)N1CCc2ccccc21)c1ccc(Cl)cc1 (configuration not stated) | inconclusive: 29.1 µM [inhibitor, single point] |  |
| Cc1ccc(NC(=O)CSc2nc3ccccc3c(=O)n2CCCC(=O)NCCCN2CCOCC2)cc1 |  | inactive: -1.2% |
| Cc1ccc(-c2nc(N)s[n+]2-c2ccccc2)cc1 | inconclusive: 23.1 µM [inhibitor, single point] |  |
| CSCCC(C(=O)N1CC2(C)CC1CC(C)(C)C2)N1C(=O)c2ccccc2C1=O (configuration not stated) | inconclusive: 18.4 µM [inhibitor, single point] |  |
| C=CCc1ccccc1OCCSc1nc(-c2ccccc2F)nc2cc(=O)[nH]n12 | active: 16.4 µM |  |
| O=C1CCCC2=C1C(c1cccc(O)c1)C1=C(N2)c2ccccc2C1=O (configuration not stated) | inconclusive: 29.1 µM [inhibitor, single point] |  |
| O=C(O)c1ccc(CNC(=O)C2CCN(S(=O)(=O)c3cccs3)CC2)cc1 |  | inactive: 1.41% |
| Cc1cc(CNC(=O)c2cnn(-c3nccc(-c4cc(C)sc4C)n3)c2C2CC2)on1 | active: 16.4 µM |  |
| CS(=O)(=O)N(Cc1ccccc1)c1ccccc1C(=O)N1CCN(c2ccccc2)CC1 | active: 20.6 µM |  |
| COC(=O)c1ccc(NC(=O)CC2C(=O)N(c3ccccc3)C(=O)N2Cc2cccs2)cc1 (configuration not stated) | active: 16.4 µM |  |
| CCN(CC)C(=O)c1sc2c(c1C)c(=O)n(-c1ccc(OC)cc1OC)c(=O)n2CC(=O)Nc1ccccc1 |  | inactive: -11.4% |
| CCC(=O)NC(Nc1nc(C)cs1)(C(=O)OC)C(F)(F)F (configuration not stated) | inconclusive: 18.4 µM [inhibitor, single point] |  |
| COc1ccc(CNC(=O)Cn2cccc2C(=O)c2ccccc2C)cc1 | inconclusive: 29.1 µM [inhibitor, single point] |  |
